In PubChem BioAssay AID485364 (National Center for Advancing Translational Sciences (NCATS), 2010):
Hit rate of the full screen: of about 360,000 compounds, about 11,000 (3.1%) were called active. Inconclusive means that the source gave no clear call. Such entries were picked first, then a sample of the others. Calls follow the shape of the dose curve; as a rule, active = well fitted inhibition curve with a large enough effect; inconclusive = small, poorly fitted or top-dose-only effect; inactive = no such curve, though single readings can be large or run the other way. No potency is given beside an inconclusive call; the fits are too rough. More than one record can exist for a structure, and the calls need not agree.

The compounds below were run against Schistosoma mansoni thioredoxin glutathione reductase (TGR) (UniProt Q962Y6) (assay: qHTS Assay for the Inhibitors of Schistosoma Mansoni Peroxiredoxins). Settings: purified TGR, DTNB reduction, TNB absorbance 405 nm; series mostly up to 114 µM.
Procedure, shortened: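 TGR 20 nM + NADPH 100 uM (dispensed conc.), cpd preinc 15 min RT; start with NADPH (500 uM addition) then DTNB (15 mM addition). Kinetic TNB absorbance, 405 nm filter. Four-parameter Hill fit across titration.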
Also: nearly all actives have a fitted effect of over 60% in size.
Potency is read from the fitted curve at half-maximal effect; tags tell the direction and shape of the fitted curve.

Structure (SMILES)	Potency
Cn1c(C(=O)N2CCN(c3ncccn3)CC2)cc2c(=O)n(C)c3ccccc3c21	inconclusive [inhibitor, partial curve]
C[N+]1(CC(O)COCC2COc3ccccc3O2)CCOCC1 (centres undefined)	inactive
CCN(CC)CCN(C(=O)CCOc1ccccc1)c1nc2ccc(F)cc2s1	inconclusive [inhibitor, single point]
O=C(c1ccc(S(=O)(=O)c2ccc(F)cc2)c([N+](=O)[O-])c1)N1CCCCCC1	inconclusive [inhibitor, partial curve]
CNC(C)C(=O)NC(C(=O)N1CCCC1C(=O)NC1CCCc2ccccc21)C(C)C (centres undefined)	inconclusive [inhibitor, partial curve]
CCOC(=O)c1ccc(Nc2cc(C)nc(-c3ccccc3O)n2)cc1	inactive
COc1ccc(/C=C2\SC(=Nc3ccccc3OC)NC2=O)cc1	inactive
O=C(Nc1ccc2oc(-c3cccnc3)nc2c1)c1ccco1	active: 50.1 µM
O=C(O)CCc1nc2cc3ccccc3cc2[nH]1	inactive
O=C(NCC(c1cccnc1)N1CCOCC1)c1ccco1 (centres undefined)	inconclusive [inhibitor, partial curve]
O=C(c1ccccc1)c1ccc(N2CCNCC2)cc1	inconclusive [inhibitor, single point]
O=C1c2ccccc2C(=O)C12Cc1ccccc1N1CCN(c3ccccc3)CC12 (centres undefined)	inactive
Cc1ccc(NC(=O)c2nc(-c3ccncc3)no2)c(Cl)c1	inactive
O=C(Nc1ccc2[nH]c(=O)[nH]c2c1)c1ccc([N+](=O)[O-])o1	active: 39.8 µM
N#C[C@H]1[C@H](c2ccccc2)[C@](C#N)(C(=O)c2ccccc2)[C@@H]2C=Cc3ccccc3N21	inconclusive [inhibitor, full curve]
O=C(c1ccc(CS(=O)(=O)c2ccc(Br)cc2)o1)N1CCCCCC1	active: 35.5 µM
Cc1ccc(CNCc2cc3c(C(C)(C)C)nn(-c4ccccc4)c3[nH]c2=O)cc1	inactive
Cc1cc2ccccc2n1CCNC(=O)c1ccc(S(=O)(=O)N2CCOCC2)cc1	inconclusive [inhibitor, full curve]
CC(C)(C)n1nnnc1C(c1cccs1)N(Cc1ccccc1)Cc1cccnc1 (centres undefined)	inactive
Cc1ccc(-n2nc3c(c2NC(=O)C(C)C)CS(=O)(=O)C3)c(C)c1	inactive
CC(=O)OCc1cc(-c2nc3ccccc3[nH]c2=O)nn1-c1ccc(Cl)cc1	inactive
COc1cccc(N2C(=O)CC(Nc3ccc(N4CCOCC4)cc3)C2=O)c1 (centres undefined)	inconclusive [inhibitor, partial curve]
Cc1nnc(C)n1/N=C/c1cc(Br)cc(Br)c1O	inconclusive [inhibitor, partial curve, poor fit]
CN1C(=O)/C(=C\c2ccc(N3CCCCCC3)cc2)C(=O)NC1=S	inconclusive [inhibitor, full curve]
Cc1ccc(NC2=C(Cl)C(=O)OC2OC(=O)c2ccccc2C)cc1 (centres undefined)	inconclusive [inhibitor, single point]

Structure (SMILES)	Potency
COc1ccccc1N1CCN(C(=O)c2noc(C)c2[N+](=O)[O-])CC1	inconclusive [inhibitor, partial curve]
COc1cnc(SCc2ccc(Cl)cc2Cl)nc1Cl	inconclusive [inhibitor, full curve, poor fit]
C=C(C)C(=O)N1CC2(CC(c3cccc(NC(=O)/C=C\C=C/C)c3)=NO2)C[C@H]1C(N)=O (some centres undefined)	inconclusive [inhibitor, full curve, poor fit]
CCCCNC(=S)N(C)/N=C/c1c(C)[nH]c2ccccc12	inactive
CC12CCC(=O)N1C(C(=O)Nc1nc(-c3ccc(F)c(F)c3)cs1)CS2 (centres undefined)	inconclusive [inhibitor, partial curve]
C=CCNC(=S)N/N=C/c1cn(C)c2ccccc12	inconclusive [inhibitor, full curve, poor fit]
O=C1c2cccnc2C(O)N1Cc1ccco1 (centres undefined)	inconclusive [inhibitor, partial curve, poor fit]
Cc1cc[n+](CC(=O)c2cc3ccccc3oc2=O)cc1	inconclusive [inhibitor, partial curve]
O=C(CC(=O)Nc1ccc(Br)cc1)Nc1ccc(Br)cc1	inactive
CC(CCc1ccc(O)cc1)NCCC(c1ccccc1)c1ccccc1 (centres undefined)	inactive
CC(=O)N1N=C(c2cccc(NS(=O)(=O)c3ccc(C)cc3)c2)CC1c1ccco1 (centres undefined)	inconclusive [inhibitor, partial curve]
O=C(NCCN1CCN(Cc2ccccc2Cl)CC1)Nc1ccccc1	inconclusive [inhibitor, single point]
COc1ccc(C2C(C#N)=C(N)N(c3cccnc3)C3=C2C(=O)CC(C)(C)C3)cc1OC (centres undefined)	active: 44.7 µM
O=C1CN(C(=O)/C=C/c2ccco2)c2ccccc2N1	inconclusive [inhibitor, full curve]
O=C(CCn1c(=O)sc2ccccc21)Nc1cccnc1	active: 50.1 µM
O=C1OC(c2cccs2)=N/C1=C\c1ccc(-c2cccc(Cl)c2)o1	inconclusive [inhibitor, partial curve]
O=[N+]([O-])c1ccc(C=Nc2ccc(Cl)cc2Cl)s1	active: 25.1 µM
COC(=O)c1sc(NC(=O)/C=C/c2ccc(C)o2)nc1C	active: 44.7 µM
Cc1ccccc1-c1nc(SCc2ccccn2)c2c(=O)n(C)c(=O)n(C)c2n1	inconclusive [inhibitor, partial curve]
Cc1cc(C(=O)Cn2nnc3ccccc3c2=O)c(C)n1Cc1cccs1	inconclusive [inhibitor, partial curve]
Clc1ccc(Cn2ncc3c(NCCN4CCOCC4)ncnc32)cc1	inconclusive [inhibitor, partial curve]
Cc1[nH]c(C(=O)O)c(C)c1C(=O)OC(C)C	inconclusive [inhibitor, single point]
Cc1ccccc1-n1ncc2c(SCC(=O)NCc3cccs3)ncnc21	inactive
O=CN1CCN(C2CC(=O)N(c3ccc(Br)cc3)C2=O)CC1 (centres undefined)	inconclusive [inhibitor, partial curve]
CC1=CC(c2ccccc2)n2nc(NS(=O)(=O)c3ccc(C)cc3)nc2N1 (centres undefined)	active: 35.5 µM

Structure (SMILES)	Potency
CN(C)/C=N/c1nc(-c2ccc3ccccc3c2)cs1	inconclusive [inhibitor, single point]
O=C(/C=C/c1ccccc1F)c1ccoc1	inconclusive [inhibitor, partial curve]
COc1ccc(NC(=O)C2c3cc(OC)c(OC)cc3C(=O)N(C)C2c2cccnc2)cc1OC (centres undefined)	inconclusive [inhibitor, full curve, poor fit]
COc1ccc(C(C)=O)cc1CSc1nnc(C)n1-c1ccccc1	inconclusive [inhibitor, partial curve]
NNc1ccc2nncn2n1	active: 35.5 µM
COc1ccc(Cl)cc1N1C(=N)SCC1=O	inactive
O=C(O)Cn1nnnc1-c1ccc(F)cc1	inconclusive [inhibitor, single point]
C[C@H](NC(=O)OCc1ccccc1)C(=O)NNC(=O)[C@H](C)NC(=O)OCc1ccccc1	inactive
CCOc1ccc(CCNC(=O)c2ccc(CS(=O)Cc3ccc(Cl)cc3)o2)cc1 (centres undefined)	active: 28.2 µM
O=C(Nc1nc2ccccc2s1)C1CCN(S(=O)(=O)c2cc([N+](=O)[O-])ccc2Cl)CC1	inconclusive [inhibitor, partial curve]
FC(F)(F)c1nnc2c(Sc3ccccc3)nc3ccccc3n12	inconclusive [inhibitor, partial curve]
Cc1cc(O)ccc1C1(c2ccc(O)cc2C)OC(=O)c2ccccc21	inconclusive [inhibitor, partial curve]
FC(F)(F)c1nc2ccccc2nc1N/N=C/c1c(Cl)cccc1Cl	inactive
COc1cc2ncc3c(-c4ccccc4)nn(-c4ccc(C)cc4)c3c2cc1OC	inactive
CCSC1(SCC)N=C(N)C2(C#N)C(c3ccc(F)cc3)C12C#N (centres undefined)	inconclusive [inhibitor, partial curve]
COC(=O)c1c(NC(=O)c2ccco2)sc2c1CCN(C(C)C)C2	inactive
O=c1oc2c(CN3CCOCC3)c(O)ccc2c2c1CCCC2	active: 79.4 µM
CC(=C1C(=O)c2ccccc2C1=O)N1CCN(CCN=CC2=C(O)CC(C)(C)CC2=O)CC1	inconclusive [inhibitor, partial curve]
CC(=O)N(CCc1cccc(C)c1)Cc1cc2cc(C)ccc2[nH]c1=O	inconclusive [inhibitor, single point]
Cn1c(SC(C(=O)Nc2ccc(F)cc2)c2ccccc2)nc2ccccc21 (centres undefined)	inactive
C=CCNCc1cc(=O)n2c(-c3ccccc3)csc2n1	inconclusive [inhibitor, partial curve]
O=C(COC(=O)c1cnccn1)c1ccc(Cl)c([N+](=O)[O-])c1	active: 39.8 µM
COc1cccc(Oc2cn[nH]c2-c2ccc(OCC(=O)NN)cc2O)c1	inactive
Cn1c(=O)[nH]c(=O)c2c1nc(CN1CCOCC1)n2Cc1ccccc1	inactive
